In PubChem BioAssay AID485344 (National Center for Advancing Translational Sciences (NCATS), 2010) one finds inhibition data, which are given here for 95 molecules.

Screen size: about 340,000 compounds; about 6,900 (2%) were called active. No stated cut-off is given here; in the data, active means inhibition above about 30%; inactive means below that, where a call was filed. This is a selection; strong and weak results do not stand in their true shares. Entries without a call were filed so in the source.

UniProt P14416, sequence (P14416 whole entry, looked up): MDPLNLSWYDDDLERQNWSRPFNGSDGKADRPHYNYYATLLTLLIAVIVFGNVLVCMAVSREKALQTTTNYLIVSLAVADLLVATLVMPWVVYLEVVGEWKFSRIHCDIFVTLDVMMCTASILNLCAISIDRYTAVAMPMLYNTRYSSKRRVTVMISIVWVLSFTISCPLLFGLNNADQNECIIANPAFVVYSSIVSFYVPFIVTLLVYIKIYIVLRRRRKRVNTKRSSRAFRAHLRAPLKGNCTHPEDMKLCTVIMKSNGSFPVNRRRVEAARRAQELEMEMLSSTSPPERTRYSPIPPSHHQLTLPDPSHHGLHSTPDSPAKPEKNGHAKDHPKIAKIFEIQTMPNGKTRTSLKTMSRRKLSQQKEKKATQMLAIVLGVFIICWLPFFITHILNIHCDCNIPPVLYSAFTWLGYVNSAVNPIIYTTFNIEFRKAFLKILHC

For the experiment, the target named is D(2) dopamine receptor (Homo sapiens) (UniProt P14416). Kind of experiment: HTS Assay for Allosteric Antagonists of the Human D2 Dopamine Receptor: Primary Screen for Antagonists. Further: 0% is about no effect. Particulars: HEK293 TREx D2 cells, calcium flux, dopamine EC80; at 10 µM; stronger effect = higher value. Summed up:
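Inhibition of EC80 dopamine-driven calcium flux, recorded kinetically, defines activity here; cells are a tetracycline-induced HEK293 T-REx line expressing force-coupled D2.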
On to `COc1cccc(NC(=O)Cc2csc(COc3cccc(C)c3)n2)c1`, for which the inhibition is -18.3%.
As for `CCOC(=O)c1c(N)n(-c2cc(C)cc(C)c2)c2nc3ccccc3nc12`, the inhibition was -0.517%.
The figure for `COc1cc2c(cc1OC)C(c1cc3cc4c(cc3[nH]c1=O)OCO4)N(C(=O)C1CC1)CC2` (stereo not given) is active: 32.6%; for `Cc1ccc(N2CCN(S(=O)(=O)c3ccc(-n4cnnn4)cc3)CC2)c(C)c1` it is 11.3%; for `Cc1ccc(Cl)cc1N1CCN(C(=O)c2ccc3c(c2)N(Cc2ccccc2)CCS3)CC1` it is 13.6%.
As for `CCn1nnc2cc(C(=O)Nc3ccc(OC)cc3)ccc21`, the figure is 1.16%; as for `COc1ccc(-n2c(=O)c3c4c(sc3n(Cc3ccc(C(C)(C)C)cc3)c2=O)CCC4)c(OC)c1`, -4.39%.
As to `Cc1ccc(-c2ccc(CCC(=O)O)n2-c2cccc(C)c2C)cc1`, the inhibition was -6.24%.
As for `CCOc1ccc(Br)cc1S(=O)(=O)Nc1cccc(-c2ccc(OC)nn2)c1`, the figure is -2.65%.
The figure for `Cc1ccc(C)c(N2CCN(C(=O)CN3C(=O)COc4ccc(S(=O)(=O)N5CCC(C)CC5)cc43)CC2)c1` is 17.5%; for `COc1ccc(NC(=O)c2c(C)oc3ccc(O)c(CN4CCCCCC4)c23)cc1` it is -1.64%; for `COc1ccc(NC(=O)C(NC(=O)C2CCC(C)CC2)C(C)C)cc1` (stereo not given) it is 6.47%.
The figure for `CCC(Sc1ncccc1C(=O)Oc1ccccc1Cl)C(=O)Nc1ccccc1OC` (stereo not given) is -20%; for `CCCNC(=O)c1ccc2c(c1)nc(C)n2-c1cccc(C)c1` it is 4.09%.
For the molecule `Cc1ccc2c(=O)c(C(=O)c3ccccc3)cn(CC(=O)Nc3ccc(C)c(Cl)c3)c2n1`, the inhibition was found to be 9.29%.
The figure for `Cc1nn(C)c2c1c(C(F)(F)F)cc(=O)n2C(C)C(=O)NCCC(C)C` (stereo not given) is -3.33%; for `CN1CCN(C(=O)Cn2c(-c3cccs3)cc3ccccc32)CC1` it is 9.21%; for `Cc1ccc(N2C(=O)CS(=O)(=O)C23C(=O)N(Cc2ccccc2C)c2ccccc23)cc1Cl` (stereo not given) it is -0.437%.
As for `O=C(Nc1ccnn1C1CCN(CCCc2ccccc2)CC1)c1ccccc1`, the figure is active: 43.6%; as for `COc1ccc(NC(=O)Cn2nc(-c3ccccc3)c3cnc4ccc(C)cc4c32)cc1`, 17.5%.
Take `Cc1nc2ccn(Cc3ccco3)c(=O)c2cc1C(=O)Nc1ccc(F)cc1`: the inhibition was 5.35%.
In the case of `COc1ccc(-n2c(=O)[nH]c3cc(C(=O)NCCc4ccc(Cl)cc4)ccc3c2=O)cc1OC`, the inhibition is -6.05%.
As for `Cc1ccc(OCC(=O)Nc2ccc3c(c2)sc(=O)n3C)cc1`, the figure is 11%; as for `CCOC(=O)c1c(NC(=O)COc2ccc(CC)cc2)sc2c1CCCC2`, -8.56%; as for `COc1ccc(CNC(=O)CCc2c(C)c3ccc(OC)c(C)c3oc2=O)cc1OC`, -3.18%.
The figure for `COC(=O)c1ccc(-n2nnc(-c3nc(-c4ccccc4Cl)no3)c2C)cc1` is -3.44%.
For the molecule `CCNC(=O)C1CCCN(c2ncnc3onc(C)c23)C1` (stereo not given), the inhibition is -1.29%.
In the case of `Cc1ccc(C(=O)c2oc3ccccc3c2NC(=O)c2cc(=O)c3cc(C)ccc3o2)cc1`, the inhibition was -14.1%.
The figure for `Cc1ccc(NC(=O)c2nnn(Cc3cccc(C(F)(F)F)c3)c2N)c(C)c1` is 2.11%; for `COc1cccc(Cn2ccn(-c3ccc(F)cc3)c(=O)c2=O)c1` it is 4.33%; for `CSCCC(=O)N1CC[C@@H](N2CCN(c3ccccc3F)CC2)[C@H](O)C1` it is active: 44.6%.
Turning to `O=C(Nc1ccc(Cl)cc1)N1CCC(CN2CCCCCC2)CC1`, the inhibition is -11.6%.
The figure for `Cc1ccc(-c2nnc(SCC(=O)N3CCCc4ccccc43)o2)cc1` is -0.302%.
As to `CCCCNc1nc(Oc2ccc(=O)n(-c3ccccc3)n2)nc(N(CC)CC)n1`, the inhibition was -12.1%.
As to `Cc1cc(NC(=O)CSc2nc3c([nH]c4ccccc43)c(=O)n2-c2ccccc2F)no1`, the inhibition amounted to 25.1%.
Turning to `CCOC(=O)C1CCN(c2cc(C)nc3c(-c4ccccc4OC)c(C)nn23)CC1`, the inhibition was -8.48%.
Take `O=C(Nc1nnc(S(=O)(=O)N2CCCCCC2)s1)c1ccccc1F`: the inhibition was determined as 11.7%.
As to `CCOc1cccc2sc(N3CCN(C(=O)C(C)(C)C)CC3)nc12`, the inhibition came out at 8.18%.
With `Cc1nc(N2CCOCC2)c2c(C(=O)N(C)Cc3ccccc3)c(C)oc2n1`, the inhibition was -1.48%.
The figure for `CCc1ccc(CNC(=O)C2CCN(c3nnc(C)c4c(C)n(-c5ccc(C)cc5)nc34)CC2)cc1` is 8.05%; for `CCOc1ccc(N(C(C)C(=O)NCCSc2ccc(Cl)cc2)S(C)(=O)=O)cc1` (stereo not given) it is -15.1%; for `C=CCNCCOCCSc1ccc(Cl)cc1` it is active: 31.8%.
The figure for `Cc1cc(NC(=O)c2cc(-c3ccc(Br)cc3)on2)nn1Cc1ccc(Cl)cc1` is -9.52%; for `COc1cc(NC(=O)c2ccc3c(Cl)c4c(nc3c2)CCC4)cc(OC)c1OC` it is 13.6%.
Regarding `Cc1ccc(/C=N/NC(=O)c2ccc(N(C)S(=O)(=O)c3ccccc3)cc2)cc1`, the inhibition is active: 48.3%.
As for `CC(C)(CC(=O)OCC(=O)Nc1ccccc1F)CC1=NS(=O)(=O)c2ccccc2N1`, the figure is 0.926%; as for `CCOC(=O)Cn1c(=O)c2c(nc(N3CCOCC3)n2Cc2ccccc2)n(C)c1=O`, 2.08%.
With `O=C(Nc1nc2n(n1)C(c1ccccc1)C=C(c1ccc(Cl)cc1)N2)c1ccco1` (stereo not given), the inhibition was 3.08%.
As for `COc1cccc(Cn2c(SCc3ccc(C(=O)N4CCCCC4)cc3)nc3ccncc32)c1`, the inhibition was -4.34%.
`Cc1cc(Cl)ccc1NC(=O)CN1C(=O)COc2ccc(S(=O)(=O)Nc3ccccc3)cc21`: the inhibition was found to be 3.78%.
As for `Cc1ccc(CN(Cc2ccco2)C(=O)COc2cccc(C)c2C)o1`, the figure is -20.2%; as for `CCOC(=O)C1CCCN(C(=O)c2ccc3c(c2)sc2nc(-c4ccc(C)cc4C)cn23)C1` (stereo not given), 7.3%.
The figure for `CCOc1ccc(-c2nonc2NC(=O)c2oc3cc(C)ccc3c2C)cc1OCC` is 11.3%.
The figure for `O=C(COc1ccc(F)cc1)Nc1nnc(SCc2cc(=O)n3ccccc3n2)s1` is -13.5%; for `COc1ccc(C)cc1NC(=O)C(Cc1ccccc1)NS(=O)(=O)c1ccc(Br)s1` (stereo not given) it is 5.88%; for `COc1ccc(N2Cc3cccc(C(=O)Nc4ccc(Cl)cc4)c3C2=O)cc1` it is -12%.
As to `O=C(Nc1nc2cc3c(cc2s1)OCCO3)c1ccc([N+](=O)[O-])o1`, the inhibition was active: 37.1%.
As for `COc1ccc(-c2ccc3c(N)c(C(=O)NCc4ccc(C)cc4)sc3n2)cc1`, the figure is 11.5%; as for `Cc1ccc2c(c1)N(C(=O)N1CCC(C(=O)NCCc3ccccc3)CC1)CC(C)O2` (stereo not given), 7.26%.
As for `CC(C)(C)OC(=O)N1CCC(c2c(C(=O)NCCN3CCOCC3)cnn2-c2ccc(F)cc2)CC1`, the figure is 5.09%; as for `Cc1ccc2c(=O)cc(C(=O)Nc3sc4c(c3C(=O)NCC3CCCO3)CCCC4)oc2c1C` (stereo not given), -0.143%; as for `CCCOc1ccc(C2c3c(oc4ccccc4c3=O)C(=O)N2CCCN2CCOCC2)cc1` (stereo not given), active: 36%.
For `O=C(c1cccc(Cl)c1)N1c2ncnn2C2(CCCCC2)[C@@H]2CCCC[C@@H]21`, the inhibition was found to be 5.99%.
As for `CC1CN(CCOCCSc2ccc(Cl)cc2)CC(C)O1` (stereo not given), the inhibition was active: 50.2%.
In the case of `CCc1c(C)sc2nc(C(C)C)nc(SCC(=O)N3CCc4ccccc4C3)c12`, the inhibition was active: 43.7%.
Turning to `Cc1ccc(CNC(=O)c2cc3ccc4cccnc4c3[nH]2)cc1`, the inhibition turned out to be 10.7%.
As for `Cc1ccc(NC(=O)Cn2cnc3c2c(=O)n(C)c(=O)n3C)cc1C`, the figure is -19.4%.
In the case of `CCN(C(=O)Cn1c(=O)n(Cc2ccccc2)c(=O)c2c1c1cc(OC)ccc1n2C)c1ccccc1`, the inhibition stood at 0.526%.
As to `Cc1ccccc1CNC(=O)c1ccc2nc(C(C)C)oc2c1`, the inhibition came to 8.04%.
The figure for `COc1cc(Cl)c(C)cc1NC(c1ccccc1)c1nnc(-c2ccccc2Cl)o1` (stereo not given) is 9.32%.
As for `COc1ccc(-c2noc(-c3ccc(NC4CCCC4)c([N+](=O)[O-])c3)n2)cc1OC`, the figure is 10.9%.
The figure for `CCC(C)n1c(=N)c(C(=O)NC2CCCCC2)cc2c(=O)n3ccccc3nc21` (stereo not given) is -15.1%.
Take `COc1ccc(C2=Nc3ccc(OC(F)(F)F)cc3NC(c3cccnc3)=N2)cc1`: the inhibition is -14.5%.
As for `COc1ccc(CN2CCCC(CO)(Cc3ccc(F)cc3F)C2)cc1` (stereo not given), the figure is active: 42.9%; as for `Cc1ccc(C)c(N2CCN(S(=O)(=O)c3cn(C)c(C)n3)CC2)c1`, -18.5%.
As for `COc1cc(NC(=O)CSc2nc(-c3ccc(C(C)C)cc3)no2)cc(OC)c1`, the figure is -16.1%; as for `COc1ccc(NC(=O)CSc2cn(CCNC(=O)c3c(F)cccc3F)c3ccccc23)cc1`, -11.7%; as for `Cc1ccc(NC(=O)CSc2nc3ccc(NC(=O)CCc4ccccc4)cc3s2)cc1`, 6.05%.
The figure for `CCN1CCN(Cc2c(O)ccc3c(=O)c(Oc4ccccc4C(C)C)c(C(F)(F)F)oc23)CC1` is 23.4%; for `O=C(CN1CCN(c2ccccc2)CC1)Nc1ccc(-n2cnnn2)cc1` it is active: 50.8%; for `CCCN1CCN(CCCNC(=O)Cn2nc(C)n3c(cc4c(OC)cccc43)c2=O)CC1` it is 7.33%.
Turning to `CCCn1cc(S(=O)(=O)c2cc(C)ccc2C)c(=O)c2cc(F)c(N3CCN(CC)CC3)cc21`, the inhibition is -27.2%.
For `CCOC(=O)c1c(S(=O)(=O)NCC(=O)NCc2ccccc2Cl)c(C)n(C)c1C`, the inhibition stood at 0.946%.
The figure for `Cc1cccc(NC(=O)C2CCN(S(=O)(=O)c3ccc4c(c3)CCCN4C(=O)C3CCC3)CC2)c1` is -16.6%; for `COCCCn1c(=O)c2sccc2n2c(CCCC(=O)NC3CCC(C)CC3)nnc12` (stereo not given) it is 4.29%.
As for `CCc1cc2c(SCC(=O)c3cccs3)ncnc2s1`, the figure is active: 33.5%; as for `Cc1cccc(C)c1-n1ncc(C(=O)N2CCN(c3ncccn3)CC2)c1C1CCN(C(=O)OC(C)(C)C)CC1`, -1.42%; as for `O=[N+]([O-])c1cccc(-c2ccc(C(=S)N3CCOCC3)o2)c1`, active: 61.5%.
The figure for `COc1ccc(CNC(=O)C2CCN(S(=O)(=O)c3ccc4c(c3)CCCN4C(C)=O)CC2)cc1` is 7.35%; for `COCc1cc(C)nc2sc3c(=O)n(-c4ccccc4C(F)(F)F)nnc3c12` it is 1.3%.
As for `CCc1ccccc1NC(=O)c1sc(-n2nc(C)c(Cc3ccccc3)c2C)nc1C`, the inhibition was 1.8%.
With `Oc1ccc2ccccc2c1C=Nc1ccccc1-c1nc2ccccc2[nH]1`, the inhibition was active: 41.4%.
The figure for `Cc1ccc(C)c(CSc2nnc3[nH]c(=O)cc(-c4ccccc4)n23)c1` is 9.28%.
The figure for `O=C1C2CCCCN2C(=O)N1CCCCN1CCN(c2ccccc2Oc2ccccc2)CC1` (stereo not given) is active: 84.1%.
As to `CCCCCOC(=O)CSc1ncnc2sc3c(c12)CCC(C)C3` (stereo not given), the inhibition came to 9.3%.
